Source: PubChem BioAssay (NCATS)
This list was built around the results that the source calls inconclusive (neither active nor inactive); the mix of calls is not that of the screen. Potencies of inconclusive entries are left out as doubtful fits. Activity calls are given as the source filed them. Calls follow the shape of the dose curve; as a rule, active = well fitted cell-killing curve with a large enough effect; inconclusive = small, poorly fitted or top-dose-only effect, or effect the other way; inactive = no such curve, though single readings can be large or run the other way.

Assay: Viability qHTS for spleen associated tyrosine kinase inhibitor (SYKi) drug resistant MV4-11 cells (AID 1963824); also: nearly all actives have a fitted effect of over 35% in size
Conditions: SYKi-resistant MV4-11 viability, CellTiter-Glo, 72 h; series mostly up to 45 µM; viability, % of control: at the top concentration
Procedure, shortened: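 SYK-inhibitor-resistant MV4-11 AML cells were seeded at 500 per well onto compound and cultured 72 hours (37 °C, 5% CO2). CellTiter-Glo was then added, and after 10 min at room temperature, luminescence gave viability.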
Potency is read from the fitted curve at half-maximal effect; tags tell the direction and shape of the fitted curve.

| Compound | viability, % of control | Potency |
| --- | --- | --- |
| O=C(NCCc1c[nH]c2ccccc12)c1cccnc1 | inactive: 67.5% |  |
| O=c1[nH]cnc2c1ncn2[C@@H]1O[C@H](CO)[C@@H](O)[C@H]1O |  | inactive |
| CC1=CC(=O)[C@]2(O[C@@H]3O[C@@H](C)[C@H](O)[C@@H](O)[C@H]3O)C=CO[C@@H](O[C@@H]3O[C@H](CO)[C@@H](O)[C@H](O)[C@H]3O)[C@H]12 |  | inconclusive [rising, full curve] |
| CC1=C(CCC(C)O[C@@H]2O[C@H](CO)[C@@H](O)[C@H](O)[C@H]2O)C(C)(C)CC(O)C1 (some centres not stated) | inactive: 102% |  |
| C[C@H]1C[C@H](O)c2ccsc2S1(=O)=O | inactive: 68.5% |  |
| Cc1ccc(C2(C(=O)N3CCC(n4nc(-c5ccccc5)oc4=O)CC3)CC2)cc1 | inactive: 76.7% |  |
| C[C@@]1(c2ncncc2F)NC(=O)c2cc(-c3cn[nH]c3)ccc21 |  | active: 20.9 µM |
| COc1ccc2c(c1)N1C(=O)C[C@@]34C=CC[N@+]5([O-])CC[C@H]2[C@H](CC3)[C@@]145 |  | inconclusive [cytotoxic, single point] |
| Cc1nnsc1C(=O)Nc1ccc(-n2nc(C(F)(F)F)cc2C(F)(F)F)cc1 |  | active: 16.4 µM |
| Cc1nc(N2CCN(C(=O)c3ccco3)CC2)c2c3c(sc2n1)CCCC3 |  | active: 14.6 µM |
| CCN1CCN(c2ccc(Nc3ccc(-c4ccc(C(N)=O)cc4)n4ncnc34)cc2)CC1 |  | active: 0.651 µM |
| C=C1C[C@]23C[C@H]1CC[C@H]2[C@@]12CC[C@H](O)[C@@](C)(C(=O)O1)[C@H]2[C@@H]3C(=O)O |  | inconclusive [cytotoxic, partial curve, poor fit] |
